Data reported in publication PMC4501731.
Results are given in words; binding and its absence hold for the method and conditions named. Binding seen in cells or lysates may run through a third protein. Some entries that bind do so weakly or less than the wild type. For some of these results: Where a sequence is shown, tags or fusion partners need not be part of it.

Sequences of proteins named here, by UniProt entry; tags and fusion partners are left off.
UniProt Q04206: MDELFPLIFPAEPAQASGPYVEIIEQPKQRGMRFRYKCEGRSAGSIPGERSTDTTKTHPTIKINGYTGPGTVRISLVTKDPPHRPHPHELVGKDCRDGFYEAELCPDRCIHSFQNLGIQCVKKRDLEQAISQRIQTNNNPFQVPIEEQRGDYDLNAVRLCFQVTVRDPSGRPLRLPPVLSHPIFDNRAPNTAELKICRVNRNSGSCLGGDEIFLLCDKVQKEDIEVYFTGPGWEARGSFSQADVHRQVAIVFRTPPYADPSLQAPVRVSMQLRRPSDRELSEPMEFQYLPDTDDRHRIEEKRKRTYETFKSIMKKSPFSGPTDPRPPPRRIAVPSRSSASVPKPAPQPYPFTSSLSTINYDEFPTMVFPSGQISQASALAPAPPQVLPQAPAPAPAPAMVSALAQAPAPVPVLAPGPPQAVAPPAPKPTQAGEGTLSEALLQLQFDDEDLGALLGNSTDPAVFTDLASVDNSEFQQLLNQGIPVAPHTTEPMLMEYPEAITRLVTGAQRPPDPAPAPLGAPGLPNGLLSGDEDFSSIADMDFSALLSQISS

Legend:
GST-dysbindin-1A = target: T1, GST-dysbindin-1A (UniProt Q96EV8); assay: pull-down; GST or GST-dysbindin-1A on Glutathione-Sepharose 4B, washed with PBS, incubated with His-p65 for 3 hours at 4°C, washed six times with PBS; immunoblot
T1 sequence: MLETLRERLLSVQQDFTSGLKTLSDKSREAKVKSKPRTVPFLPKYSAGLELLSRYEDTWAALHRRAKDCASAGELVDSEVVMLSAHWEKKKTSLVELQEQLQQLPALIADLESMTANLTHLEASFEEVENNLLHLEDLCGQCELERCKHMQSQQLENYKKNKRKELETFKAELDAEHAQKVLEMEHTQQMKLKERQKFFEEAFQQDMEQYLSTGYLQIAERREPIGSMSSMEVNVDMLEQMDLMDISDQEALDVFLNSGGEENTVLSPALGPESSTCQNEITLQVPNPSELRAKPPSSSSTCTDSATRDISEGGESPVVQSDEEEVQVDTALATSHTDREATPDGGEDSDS

[1] = target: T2, endogenous dysbindin-1A (human (endogenous in SH-SY5Y)) (UniProt Q96EV8); assay: co-IP; endogenous proteins of SH-SY5Y cells; anti-dysbindin antibodies and protein G agarose overnight at 4°C; immunoblot for p65
T2 sequence: T1 sequence

EGFP-dysbindin-1A = target: T3, EGFP-dysbindin-1A (UniProt Q96EV8); assay: co-IP; cells expressing EGFP-dysbindin-1A or EGFP-dysbindin-1A del 2–41, with endogenous or overexpressed p65 (Fig B in S1 File); antibody used to precipitate not told in the text shown
T3 sequence: T1 sequence

[2] = target: T4, EGFP-dysbindin-1A del 2–41 (UniProt Q96EV8); assay: as above
T4 sequence: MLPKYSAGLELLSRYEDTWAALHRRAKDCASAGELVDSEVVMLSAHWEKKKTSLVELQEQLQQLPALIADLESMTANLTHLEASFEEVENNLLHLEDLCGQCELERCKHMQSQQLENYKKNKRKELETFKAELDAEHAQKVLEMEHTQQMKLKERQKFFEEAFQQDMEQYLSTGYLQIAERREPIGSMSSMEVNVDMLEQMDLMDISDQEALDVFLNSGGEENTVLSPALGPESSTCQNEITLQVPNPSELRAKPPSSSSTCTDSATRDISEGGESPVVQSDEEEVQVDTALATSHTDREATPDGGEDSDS

EGFP-p65 [3] = target: EGFP-p65 (UniProt Q04206); assay: co-IP; nuclear fraction of HEK293 cells transfected with EGFP or EGFP-p65 and Flag-dysbindin-1A; anti-GFP antibody; immunoblot
EGFP-p65 [4] = target: EGFP-p65 (UniProt Q04206); assay: co-IP; cytoplasmic fraction of HEK293 cells transfected with EGFP or EGFP-p65 and Flag-dysbindin-1A; anti-GFP antibody; immunoblot
EGFP-p65 [5] = target: EGFP-p65 (UniProt Q04206); assay: co-IP; HEK293 cells co-transfected with Flag-dysbindin-1A and EGFP or EGFP-p65; whole lysate (50 mM Tris-HCl pH 7.5, 150 mM NaCl, 1% NP-40, 0.5% sodium deoxycholate); anti-GFP antibody and protein G agarose overnight at 4°C; immunoblot

With His-p65 (from UniProt Q04206 1-551) the binding (GST-dysbindin-1A) was “binds”.

In the case of “endogenous p65 (from UniProt Q04206 1-551)”, the binding [1] is reported as “binds”.

“endogenous p65 (cells of Fig B in S1 File) (from UniProt Q04206 1-551)” was tested, and the binding (EGFP-dysbindin-1A) was “binds” and the binding [2] was “binds”.

B1: Flag-dysbindin-1A (protein, UniProt Q96EV8-1 1-351)
chain: T1 sequence
With B1 the binding (EGFP-p65 [3]) was “binds”, the binding (EGFP-p65 [4]) was “no binding (condition: in the cytosolic fraction)” and the binding (EGFP-p65 [5]) was “binds”.
